Test results from the supplement of paper PMC10338343.
± gives the standard deviation. In all, about 6,600 sequences were measured (“pre-steady-state target cleavage rate”: median about 0.07, highest 2% from about 0.72 on). This is a selection; strong and weak results do not stand in their true shares.

system: MIWI (PIWIL1) piRISC loaded with Kctd7 piRNA (30 nt); experiment: pre-steady-state target cleavage rate (min^-1); MIWI and MILI are mouse PIWI proteins and EfPiwi is from a freshwater sponge; tags in brackets are library labels; higher = faster piRNA-guided slicing of the target; conditions: guide: Kctd7 piRNA 5'p-UGUUAAUCUCUCAGAGAAGGUGACAGUGAU; auxiliary factor: 500 nM mouse GTSF1
How it was run: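 A transcribed, DNA-blocked target RNA library (0.1 nM) and 1 nM active affinity-purified piRISC bearing one synthetic guide were incubated in HEPES–potassium acetate buffer at 33 °C for 0–8 or 0–960 min, either with or without 500 nM GTSF1 partner protein. Uncleaved targets were sequenced, normalised to depth and to weakly complementary targets, and pooled over three trials, with k3 capped at 0.0001 min^-1. The pre-steady-state cleavage rate was derived with a burst-and-steady-state fit.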

Row | Sequence | pre-steady-state target cleavage rate
1 | AUGACUGUCACCUACUCUGAGAGAUUAACA | 0.736 ± 0.042
2 | UAGACUGUCACGAUCUCUGAGAGAUUAAGA | 0.034 ± 0.0078
3 | UAGUGACACACCUCCUCUGAGAGAUUAACA | 0.53 ± 0.024
4 | UAGUGACACACGUUCUCUGAGAGAUAAACA | 0.0839 ± 0.011
5 | AUCUCUGUCAGCUUCUCUGAGAGAUUAACA | 0.678 ± 0.032
6 | UACACUGUCACCAAGUCUGAGAGAUUAAGA | 0.0266 ± 0.012
7 | UAGUGUCAGACCUUCUCUGAGAGAUUAUGA | 0.00374 ± 0.0036
8 | UAGUGACAGUGCUUCUCUAAGAGAUUAACA | 0.00732 ± 0.0026
9 | UAGUGACACACCUUCUCAGAGAGUUUAACA | 0.0516 ± 0.013
10 | UAGUGACAGUGGAAGAGACAUAGAUUAACA | < 0.0001
11 | UAGUCUGUCACCUUCUCUGAGAGAUUACACA | 0.239 ± 0.031
12 | AUCAGUGUCACCUUCUCUGAGAGAUUAUCA | 0.253 ± 0.042
13 | UAGUGACACUCCUUCUCUGAGAGAUUAUCA | 0.0975 ± 0.017
14 | UAGUGACACGACCUUCUCUGAGAGAUUAACA | 0.302 ± 0.021
15 | UAGUGACUCACCUUCUCUGAGUCAUUAACA | 0.00987 ± 0.0037
16 | UAGUGAGUCACCUUCUCUGAGUGAUUAAGA | 0.00713 ± 0.0034
17 | UACACUGUCACCUUCUCUGAGAGAUUCAACA | 0.465 ± 0.084
18 | AUCACUCUCACCUUCACUGAGAGAUUAACA | 0.364 ± 0.022
19 | UAGUGACAGACCUUCUCUGAGAGAUUAACU [g2:g21:cont:t1U] | 0.0886 ± 0.0091
20 | AUCACUGUCACCUUCUCUGAGACAUAAACA | 0.0216 ± 0.0092
21 | UUCACAGUCACCUUCUCUGAGUGAUUAACA | 0.0427 ± 0.0083
22 | UAGUGAGUCACCUUCUCUGAGAGAUUAUACA | 0.345 ± 0.054
23 | UAGUCUGUCUCCUUCUCUGAGAGAUUAUCA | 0.207 ± 0.029
24 | UAGUGACACACCUUCUCUGAGAGUUUAAGA | 0.0183 ± 0.0078

Row | Sequence | pre-steady-state target cleavage rate
25 | AUCACUGUCUGGUUCUCUGAGAGAUUAAGA | 0.0372 ± 0.0069
26 | UAGUGAGUCACCUUGUCUGAGAGAUUUUGA | 0.0167 ± 0.0078
27 | UAGUGACACACCUUCUCUGUGAGAUUUUGA | 0.00561 ± 0.0036
28 | UAGUGACACACGUUCUCUGAGAGAUUAUCA | 0.1 ± 0.018
29 | UAGUCUGUCCCUUCUCUGAGAGAUUAACA | 0.585 ± 0.047
30 | UAGUCCUGUCACCUUCUCUGAGAGAUUAACA | 0.67 ± 0.046
31 | UAGACUGUCACCUUCUCUGAGUGAUUUACA | 0.00574 ± 0.0021
32 | UACACUGUCACCUUGACUGAGAGAUUAUGA | 0.00988 ± 0.0053
33 | UAGUGACAGUGGAAGAGAGAGAGAUGAACA | < 0.0001
34 | UAGUGUGUCACCUUCUCUGAGAGAAUAUGA | 0.0376 ± 0.015
35 | UAGUGUGUCACCAUCUCUGAGAGAUAUUGA | 0.00443 ± 0.0043
36 | UAGUGACUCACCUUCUCUGAGAGAUUAGACA | 0.215 ± 0.047
37 | UAGUGACAGUCCUUCUCUGAGAGAUGAACA | 0.00623 ± 0.0023
38 | UAGUGACAGUGGAAGAGUGAGUCUUUAACA | < 0.0001
39 | UAGUGUGUCACCUUCUCUGAGAGAUUAACA [g2:g25:cont:t1A] | 0.628 ± 0.03
40 | UAGUGACACACCUUGUCUGACAGAUUAACA | 0.19 ± 0.046
41 | UAGUGUGUCACCUUCACUGAGAGAUUUUGA | 0.0636 ± 0.025
42 | UAGUGACUCACCUUUCUGAGAGAUUAACA | 0.0534 ± 0.0082
43 | UAGUGUGUCUCCUUCUCAGAGAGAUUAACA | 0.127 ± 0.016
44 | UAGUCUGUGACCUUGUCUGAGAGAUUAACA | 0.187 ± 0.022
45 | UAGUGUCUCACCUUCUCUGAGAGUUUAACA | 0.488 ± 0.077
46 | UAGUGACAGACCGUUCUCUGAGAGAUUAACA | 0.00991 ± 0.0025
47 | UAGUCUGUCACCUUCUGUGAGAGAUAAACA | 0.0539 ± 0.0081
48 | UAGUCUGUCACCUUCUCUGAGAGUAUUAACA | 0.462 ± 0.051

Row | Sequence | pre-steady-state target cleavage rate
49 | UUCACUGUCUGCUUCUCUGAGAGAUUAACA | 0.639 ± 0.038
50 | UUCUCUGUCACCUUCUCUGAGAGAUAAACA | 0.235 ± 0.031
51 | UAGUGACUCAGCUUCUCUGUGAGAUUAACA | 0.0335 ± 0.005
52 | UUCACUGUCACCUUCUCUGAGAGAUUGAACA | 0.368 ± 0.063
53 | UUCACUGUCACCUUCAGUGAGAGAUUAACA | 0.0717 ± 0.013
54 | UAGUGACAGUGGUUUCUCUGAGAGAUUAACA | 0.00321 ± 0.0029
55 | UAGUGACUCACCUUCUCUGAGAGAUAAACA | 0.303 ± 0.042
56 | UAGUGACAGUGCUUCUCUGAGAGUAAAACA | < 0.0001
57 | UAGACUGUCACCUUCUCUGAGAGUAAAACA | 0.0358 ± 0.01
58 | UAGACUGUCACCUACUGUGAGAGAUUAACA | 0.38 ± 0.025
59 | AUCACUCUCACCUACUCUGAGAGAUUAACA | 0.464 ± 0.027
60 | UAGACACACACCUUCUCUGAGAGAUAUUGA | 0.0297 ± 0.012
61 | AUCACUGUCACCAACUCUGAGAGAUUAAGA | 0.0836 ± 0.015
62 | UAGUCUGUCACCUACUCUCAGAGAUUAACA | 0.0648 ± 0.0097
63 | UAGUGUGUGACCUUCUCUCAGAGAUUAACA | 0.0461 ± 0.01
64 | UAGUGAGUGACCAUCUCUGAGAGAUUAACA | 0.266 ± 0.021
65 | UAGUCUGUCACCUUCACUGAGAGAUUUACA | 0.267 ± 0.038
66 | UACACUGUCACCUACUCUGAGAGAUUAUCA | 0.227 ± 0.033
67 | UAGUCUGUCUGCUUCUCUGAGAGAUUAAGA | 0.0401 ± 0.0079
68 | AACACUGUCACCUUCUCUGAGAGAAUAACA | 0.382 ± 0.06
69 | UAGUCUGUCACCUUCUCUGAGAGCUUAACA | 0.228 ± 0.026
70 | UUCACUGUCUCCUUCUCUGAGAGAUUAAGA | 0.109 ± 0.021
71 | UAGUGACUCACCUUGUCUGAGACAUUAACA | 0.132 ± 0.017
